# Assay results taken from PubChem BioAssay AID504444 (National Center for Advancing Translational Sciences (NCATS), 2011).
# The campaign covered roughly 360,000 compounds. About 7,500 (2.1%) were called active. Not shown: some 20% with an inconclusive outcome. Calls come from the whole dose curve; as a rule, active = well fitted inhibition curve with a large enough effect; inconclusive = small, poorly fitted or top-dose-only effect, or effect the other way; inactive = flat fitted curve, though single readings scatter. The list shows a part of the results, in another mix than the full data.
# Test: Nrf2 qHTS screen for inhibitors; note: nearly all actives have a fitted effect of over 60% in size
# Conditions: A549 ARE-Fluc reporter, luciferase luminescence, 18-24 h; series mostly up to 46 µM; activity change, negative = inhibition: at the top concentration
# Summary of the method: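 Concentration-response testing used A549 ARE_Fluc cells at 5000 cells/well. Following an 18-24 h compound incubation, viability was read by fluorescence (Ex 405/Em 525) and luciferase output by luminescence.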
# % is set by controls: 0 for no effect and ±100 for the full control effect; potency is the fitted concentration of half-maximal effect.
Structure (SMILES),"activity change, negative = inhibition",Potency
CCN(CC)S(=O)(=O)c1ccc(OC)c(-n2cnnn2)c1,inactive: -1.98%,–
Cc1ccc(C)c(NC(=O)CN(C)C(=O)c2cccc(S(=O)(=O)N3CCN(Cc4ccccc4)CC3)c2)c1,–,active: 11.6 µM
Cc1c(C)n(C)c2ccc(C(=O)NCCCN3CCCCC3C)cc12 (stereo not given),inactive: 4.67%,–
Cc1cccc(N2CCN(C(=O)c3ccccc3SCC(=O)N3CCCC3)CC2)c1C,–,active: 23.1 µM
CCn1cc(CCC(=O)NCc2ccccc2OC)c2ccccc21,inactive: 10.4%,–
CCOCCCNC(=O)C(Cc1ccccc1)NS(=O)(=O)c1ccc2c(c1)c(=O)n(C)c(=O)n2C (stereo not given),inactive: 5.6%,–
O=C(O)/C=C/c1cn(-c2ccccc2)nc1-c1cc2ccccc2o1,inactive: -16.9%,–
CCOC(=O)c1ccc(-n2c(C)nc3c(cnn3-c3ccc(Cl)cc3)c2=O)cc1,inactive: 0.309%,–
N#Cc1nc(-c2ccc(OCc3ccccc3)cc2)oc1N1CCC(C(N)=O)CC1,inactive: 11.9%,–
Cc1nc2ccccc2nc(=O)c1NNc1ccccc1,inactive: 7.47%,–
Cn1nnnc1Sc1ncnc2scc(-c3ccc(C(F)(F)F)cc3)c12,inactive: -117%,–
COc1ccccc1CNC(=O)CN1C(=O)COc2ccc(S(=O)(=O)NC3CCCC3)cc21,inactive: -24.3%,–
CCOc1ccc(/C=C/[N+](=O)[O-])c2ccccc12,–,active: 25.9 µM
CC(C)C[C@H](CO)N(Cc1ccccc1)S(=O)(=O)N(Cc1ccccc1)[C@@H](CO)CC(C)C,inactive: -132%,–
CCc1cccc(C)c1NC(=O)Cn1nc(C)n2cccc2c1=O,inactive: -1.85%,–
CCOC(=O)C(C)Sc1ccc2nnc(CCNS(=O)(=O)c3ccc(C)cc3)n2n1 (stereo not given),inactive: -3.81%,–
COc1ccc(S(=O)(=O)Nc2c(C)nc3nc[nH]n3c2=O)cc1,inactive: -2.67%,–
COc1ccc2c(c1)cc1c(=O)n(CC(=O)NC(C)CCc3ccccc3)nc(C)n12 (stereo not given),inactive: 3.07%,–
c1ccc(CNc2nc(-c3ccccn3)nc3ccccc23)cc1,–,active: 16.4 µM
Cc1ccc(-n2ncc3c(Nc4cccc(C(=O)O)c4)ncnc32)cc1,inactive: 27.3%,–

Structure (SMILES),"activity change, negative = inhibition",Potency
CCc1ccc(NC(=O)CSc2nnc(CC)c(CC)n2)cc1,inactive: 11%,–
CCc1ccc(NC(=O)C2CCCN(S(=O)(=O)c3ccc4[nH]c(=O)ccc4c3)C2)cc1 (stereo not given),inactive: -23.5%,–
COC(=O)[C@H](CC(C)C)NS(=O)(=O)N(Cc1ccccc1)[C@@H](CC(C)C)C(=O)OC,inactive: -13.7%,–
CC(C)c1ccc(NC(=O)Cn2nnc(C(=O)NCc3ccc4c(c3)OCO4)c2N)cc1,inactive: 7.81%,–
O=C(Oc1cccnc1)c1ccc([N+](=O)[O-])cc1Cl,–,active: 1.03 µM
Cc1ccccc1NC(=O)CSc1ccc(-c2ccccn2)nn1,inactive: -0.722%,–
C/C=C(/C)C(=O)O[C@@H]1c2c(ccc3ccc(=O)oc23)OC(C)(C)[C@@H]1OC(C)=O,inactive: -15.6%,–
C=C1CCC2[C@](C)(CO)[C@H](O)CC[C@@]2(C)[C@@H]1C/C=C1\C(=O)OC[C@H]1O (stereo not given in full),inactive: -11.3%,–
O=C(CN1CCN(C(=S)NC2CCCC2)CC1)Nc1ccc(Oc2ccccc2)cc1,–,active: 16.4 µM
COc1ccc([C@H]2[C@@H]3C=CCC[C@@]3(C)C(=O)N2Cc2ccccc2)cc1Cl,inactive: -21.4%,–
CCC(C)NC(=O)Cn1ccc2cc(S(=O)(=O)N3CCCCCC3)ccc21 (stereo not given),inactive: -23.7%,–
Cc1ccc(NC(=O)CCCn2nc(C)c3c(C)n(-c4ccccc4)nc3c2=O)c(Cl)c1,inactive: -10.6%,–
O=S(=O)(c1ccc2c(c1)OCCO2)C1CCC(S(=O)(=O)c2c(F)cccc2F)CC1 (stereo not given),inactive: 1.21%,–
C[C@@H]1CC[C@@]2(O[C@H](CCO)C[C@@H](O)[C@@H]2O)O1,inactive: 1.22%,–
COc1ccccc1CN1C(=O)[C@H]2Cc3c([nH]c4ccccc34)C(C)(C)N2C1=O,inactive: -1.56%,–
C=CCC[C@H](Cc1ccc(F)cc1)C(=O)OC[C@@H](Cc1c[nH]c2ccccc12)NC(=O)[C@H](CC=C)CC(=O)NCCO,inactive: -24%,–
C=C(C1=CCN(S(=O)C(C)(C)C)[C@@H]1CCO)c1ccccc1 (stereo not given in full),inactive: -14.5%,–
CCc1cccc(NC(=O)CCC(=O)N2CCSc3ccccc32)c1,inactive: 15.7%,–
Fc1ccc(Nc2c3c(nc4ccccc24)CCC3)cc1,inactive: 5.07% [at 9.27 µM],–
COc1ccccc1/C=C/c1nc(C#N)c(N(C)C)o1,inactive: -15.3%,–

Structure (SMILES),"activity change, negative = inhibition",Potency
O=C(c1ccc2c(c1)N(Cc1ccccc1F)C(=O)c1ccccc1S2(=O)=O)N1CCCC1,inactive: -18.6%,–
C=CC(COCc1ccccc1)N(Cc1ccccc1)S(=O)(=O)c1ccccc1Br (stereo not given),inactive: -4.97%,–
CC(C)NC(=O)CCN1C(=O)c2ccccc2Sc2ncccc21,inactive: 0.109%,–
CCn1c(=O)cc(OCC(=O)N2CCN(c3ccc(F)cc3)CC2)c2ccccc21,inactive: -10.3%,–
CC[C@H]1c2[nH]c3ccccc3c2C[C@H]2C(=O)N(c3ccc(F)cc3)C(=O)N21,inactive: -24.6%,–
O=C(c1cc(-c2ccc(O)cc2)on1)N1CCN(c2ccccc2)CC1,inactive: -1.6%,–
Cc1cc(/C=C(/C#N)C(=O)Nc2ccccc2)c(C)n1-c1cccnc1,inactive: 13.5%,–
O=C(CCCN1C(=O)/C(=C\c2cccs2)SC1=S)NNC(=O)c1ccncc1,inactive: 2.4%,–
Nc1ccc(S(=O)(=O)Nc2ccnn2-c2ccccc2)cc1,–,inactive
Cc1ccc(NC(=O)Cn2nnc(C(=O)NCCc3ccccc3)c2N)cc1Cl,inactive: 6.16%,–
C=CC1=CCN(S(=O)C(C)(C)C)[C@H]1CCO (stereo not given in full),inactive: 20.2%,–
CCOC(=O)C1CCCN(CCC(=O)Nc2cccc(C)c2)C1 (stereo not given),inactive: 4.36%,–
COc1ccccc1N1CCN(C(=O)c2cc(-c3ccccc3O)on2)CC1,inactive: 10.8%,–
C[C@H](CCC(=O)O)[C@H]1CC[C@H]2[C@@H]3CC[C@@H]4C[C@H](O)CC[C@]4(C)[C@H]3C[C@H](O)[C@]12C,–,inactive
O=C(CN1C(=O)COc2ccc(S(=O)(=O)N3CCCCC3)cc21)NCc1ccc(Cl)cc1,inactive: -2.46%,–
CC(=O)c1ccc(NC(=O)c2ccc(-c3nc(CSc4ccccc4)c(C)o3)cc2)cc1,–,active: 10.3 µM
Cc1ccc(NC(=O)CSc2nc(-c3ccco3)cc(C(F)(F)F)n2)cc1C,inactive: -3.62%,–
COc1ccc(C2=Nn3c(nnc3-c3ccc(OC)cc3)SC2)cc1,inactive: 17.4%,–
CS(=O)(=O)c1ccc(CNC(=O)[C@]2(C(F)(F)F)C[C@H](CCc3ccccc3)CCCO2)cc1,inactive: -23.9%,–
C=CCC[C@@H](Cc1ccc(F)cc1)C(=O)OC[C@H](Cc1c[nH]c2ccccc12)NC(=O)[C@@H](CC=C)CC(=O)N[C@H](CO)Cc1ccccc1,inactive: -19.5%,–
